The campaign covered roughly 270,000 compounds. About 620 (0.23%) were called active. The shares of active, inactive and inconclusive entries below differ from those in the screen. Calls come from the whole dose curve; as a rule, active = well fitted inhibition curve with a large enough effect in the polarisation, with a control signal flat (not every such curve was filed as active); inconclusive = small, poorly fitted or top-dose-only effect, or effect the other way, or a change in a side signal; inactive = no such curve, though single readings can be large or run the other way; the % refers to the polarisation. Potencies beside an inconclusive call are fits to weak or partial responses and may not hold up. A note “side channel” means that the fit belongs to a control or component signal, not to the main read-out.
molecular target: Menin (Homo sapiens) (UniProt O00255); assay: qHTS Assay for Inhibitors Targeting the Menin-MLL Interaction in MLL Related Leukemias: Competition With Texas Red Labeled MLL-derived Mutant Peptide; conditions: fluorescence polarization; FP activity change, negative = inhibition: at 61.6 µM (top of the series); for FP activity change, negative = inhibition: % of control where 0% means no effect
Potency is the fitted concentration of half-maximal effect; tags give direction and shape of the fitted curve or compound fluorescence and quenching.

Chain of UniProt O00255 (O00255 whole entry, looked up): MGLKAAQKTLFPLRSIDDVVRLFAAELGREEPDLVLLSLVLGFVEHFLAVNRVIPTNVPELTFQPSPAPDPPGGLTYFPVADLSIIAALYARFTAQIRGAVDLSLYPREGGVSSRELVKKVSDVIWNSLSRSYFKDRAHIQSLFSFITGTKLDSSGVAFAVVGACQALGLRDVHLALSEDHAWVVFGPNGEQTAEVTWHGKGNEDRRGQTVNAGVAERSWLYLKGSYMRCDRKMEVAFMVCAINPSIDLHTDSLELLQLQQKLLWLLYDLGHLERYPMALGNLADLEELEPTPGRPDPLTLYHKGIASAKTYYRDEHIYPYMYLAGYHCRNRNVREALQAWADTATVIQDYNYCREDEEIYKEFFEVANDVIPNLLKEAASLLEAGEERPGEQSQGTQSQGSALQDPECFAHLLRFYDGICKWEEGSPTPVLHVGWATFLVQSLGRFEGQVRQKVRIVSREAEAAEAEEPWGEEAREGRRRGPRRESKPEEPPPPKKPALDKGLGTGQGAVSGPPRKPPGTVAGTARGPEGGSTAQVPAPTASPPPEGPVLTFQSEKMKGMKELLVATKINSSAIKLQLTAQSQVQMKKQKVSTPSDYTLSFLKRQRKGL

Potency, inconclusive:
COC(=O)c1cc(C(=O)N2CCN(c3cccc(Cl)c3)CC2)cc([N+](=O)[O-])c1 39.8 µM [inhibitor, single point], Cc1ccc(Nc2nnc(SCC(=O)Nc3ncc(S(=O)(=O)c4ccc([N+](=O)[O-])cc4)s3)s2)cc1 15.8 µM [quencher, side channel, partial curve], O=C(N/N=C/c1c[nH]c2c1ccc1ccccc12)c1ccc([N+](=O)[O-])cc1 39.8 µM [quencher, side channel, single point], CCO[C@@H]1OC(C(=O)N2CCN(Cc3ccccc3)CC2)=C[C@H](c2csc3ccccc23)[C@H]1CCCO 2.51 µM [fluorescent, side channel, full curve], COc1ccc(/C=N/NC(=O)c2cc(=O)[nH]c3ccccc23)cc1OC 4.47 µM [fluorescent, side channel, single point], O=C1C(=O)N(CNc2ccccn2)c2ccccc21 39.8 µM [inhibitor, single point], N#Cc1ccc(-c2csc(NC(=O)/C=C/c3cccs3)n2)cc1 22.4 µM [inhibitor, single point], CN1C2C=C(N(CCc3ccccc3)C(=O)c3ccc(Cl)cc3)CC1CC2 (configuration not stated) 15.8 µM [inhibitor, partial curve], COc1cc(/C=C(\C#N)C(=O)Nc2cccc(C(=O)O)c2)ccc1OCc1ccc(F)cc1 12.6 µM [quencher, side channel, partial curve], COc1ccc(CN(C(=O)c2oc3ccccc3c2C)C2CCS(=O)(=O)C2)cc1OC (configuration not stated) 1 µM [inhibitor, full curve, poor fit], Cc1cc(NC(=O)CSc2nc3c(C)c(C)ccc3cc2C)no1 25.1 µM [inhibitor, single point], Cc1ccccc1NC(=O)CCC(=O)N/N=C/c1c[nH]c2ccccc12 28.2 µM [quencher, side channel, single point], CCC(=O)NC(=S)Nc1ccc(-c2nc3ccccc3s2)cc1 11.2 µM [inhibitor, partial curve], CC(NC(=O)C(=O)N/N=C\c1ccc([N+](=O)[O-])cc1)c1ccccc1 (configuration not stated) 31.6 µM [quencher, side channel, partial curve], O=C(Nc1cccc(C(F)(F)F)c1)c1ccc2nc(N3C(=O)CCC3=O)sc2c1 25.1 µM [inhibitor, single point], CCOC(=O)C1=C(C)c2ccccc2OC1(C(=O)OCC)C(C)C (configuration not stated) 25.1 µM [inhibitor, partial curve], COc1cc2c(cc1NC(=O)c1cncc(Br)c1)oc1ccccc12 12.6 µM [quencher, side channel, partial curve], CC(=O)NC(Cc1cc(C)ccc1C)C(=O)N1CCN(C(=O)Nc2ccc(C(C)=O)cc2)CC1 (configuration not stated) 39.8 µM [inhibitor, single point], COC(CNc1nc(SC)nc2sc3c(c12)CCN(C)C3)OC 35.5 µM [inhibitor, partial curve, poor fit], Cc1nc(C)c(-c2csc(Nc3ccc(C(=O)O)c(O)c3)n2)s1 28.2 µM [quencher, partial curve], O=C(CC1(O)C(=O)N(Cc2ccccc2)c2ccccc21)c1ccc2c(c1)OCO2 (configuration not stated) 6.31 µM [fluorescent, side channel, single point], COc1ccc(C2CC(=O)Oc3c(C(CCN4CCCC(C)C4)c4ccc(N(C)C)cc4)c(OC)cc(OC)c32)cc1 (configuration not stated) 1.78 µM [inhibitor, full curve, poor fit], Cc1cc(C)c(C)c(C(=O)CSc2nnc(-c3ccc4[nH]c(C)c(C)c4c3)o2)c1C 39.8 µM [inhibitor, single point], CCOc1nc2ccccc2nc1NS(=O)(=O)c1ccc(Cl)cc1 15.8 µM [quencher, side channel, single point], NC(=S)N/N=C/c1c[nH]c2ccc(OCc3ccccc3)cc12 14.1 µM [quencher, side channel, partial curve], O=C(Nc1nnc(C2CC2)o1)c1ccc(S(=O)(=O)N2CCc3ccccc3C2)cc1 25.1 µM [quencher, side channel, single point], CC(CNC(=O)C(=O)NC(C)CCc1ccccc1)Cc1ccccc1 (configuration not stated) 7.08 µM [inhibitor, single point], CN1CCN(NC(=O)c2cc(-c3ccc(Br)s3)nc3ccccc23)CC1 17.8 µM [quencher, side channel, single point], O=C(CCc1ccccc1)N/N=C/c1cc(Br)ccc1O 7.08 µM [quencher, side channel, single point], COc1ccc(-c2csc(NCc3ccco3)n2)cc1 31.6 µM [quencher, side channel, single point], CCOC(=O)c1cn(CC)c2ccc(S(=O)(=O)N3CC(C)CC(C)C3)cc2c1=O (configuration not stated) 20 µM [fluorescent, side channel, partial curve], Cc1cccc(NC(=O)c2nc[nH]c2C(=O)Nc2ccccc2[N+](=O)[O-])c1 10 µM [quencher, side channel, partial curve]

FP activity change, negative = inhibition, inactive:
FC(F)(F)c1cc(-c2cccs2)nc2ncnn12 4.23%, Nc1nc2c(s1)COc1ccccc1-2 7.49%, Cc1ccc2ccccc2[n+]1CCCS(=O)(=O)[O-] -7.61%, Clc1ccc(C2=Nn3c(nnc3-c3cc(-c4ccccc4)n[nH]3)SC2)cc1 -0.404%, Cc1ccc(NC(=O)C(=O)Nc2ccc(C)cn2)nc1 11.1%

— PubChem BioAssay AID1768 (National Center for Advancing Translational Sciences (NCATS), 2009)
